The values below come from article PMC4336329 (PLoS ONE, 2015).

The campaign covered roughly 310,000 compounds. About 2,200 (0.71%) showed an effect of 50% or more. Effects have a minus sign here. The list shows a part of the results.

For the assay, the target named is human ether-à-go-go-related gene (hERG) potassium channel (human, UniProt Q12809). In words: primary screen, population patch clamp on CHO cells stably expressing hERG.
human ether-à-go-go-related gene (hERG) potassium channel, sequence (Q12809 whole entry, looked up): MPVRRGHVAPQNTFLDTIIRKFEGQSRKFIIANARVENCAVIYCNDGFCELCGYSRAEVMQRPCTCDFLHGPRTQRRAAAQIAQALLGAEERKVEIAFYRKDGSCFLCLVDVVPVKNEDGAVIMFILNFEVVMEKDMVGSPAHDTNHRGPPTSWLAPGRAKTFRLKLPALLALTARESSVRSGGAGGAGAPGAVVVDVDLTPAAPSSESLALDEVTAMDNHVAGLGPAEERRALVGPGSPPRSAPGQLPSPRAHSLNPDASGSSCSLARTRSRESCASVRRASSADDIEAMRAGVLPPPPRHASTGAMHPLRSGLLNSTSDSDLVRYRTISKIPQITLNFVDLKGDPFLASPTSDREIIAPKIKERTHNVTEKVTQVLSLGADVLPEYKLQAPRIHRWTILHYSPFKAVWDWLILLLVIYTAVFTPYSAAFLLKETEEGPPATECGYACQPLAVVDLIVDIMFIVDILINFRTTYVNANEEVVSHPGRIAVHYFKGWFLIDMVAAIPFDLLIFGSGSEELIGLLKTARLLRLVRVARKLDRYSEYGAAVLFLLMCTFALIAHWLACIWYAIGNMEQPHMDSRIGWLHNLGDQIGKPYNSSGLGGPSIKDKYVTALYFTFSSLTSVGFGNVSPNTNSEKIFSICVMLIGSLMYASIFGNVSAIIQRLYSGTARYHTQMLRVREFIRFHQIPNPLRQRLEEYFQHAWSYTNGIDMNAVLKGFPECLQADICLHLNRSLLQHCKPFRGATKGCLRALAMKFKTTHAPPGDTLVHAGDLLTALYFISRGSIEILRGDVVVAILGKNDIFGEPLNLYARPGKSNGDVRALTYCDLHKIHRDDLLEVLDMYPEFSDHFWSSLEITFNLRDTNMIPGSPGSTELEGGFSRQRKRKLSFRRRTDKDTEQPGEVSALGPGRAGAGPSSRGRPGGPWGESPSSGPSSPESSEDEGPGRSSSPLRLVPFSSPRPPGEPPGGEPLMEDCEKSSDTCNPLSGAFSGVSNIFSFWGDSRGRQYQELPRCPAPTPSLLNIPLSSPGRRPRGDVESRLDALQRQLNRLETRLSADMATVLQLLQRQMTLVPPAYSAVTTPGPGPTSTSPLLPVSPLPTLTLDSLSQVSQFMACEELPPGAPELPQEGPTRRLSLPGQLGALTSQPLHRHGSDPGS
With `O=C(CCc1nnc2ccc(NCc3ccccc3Cl)nn12)N1CCC2(CC1)OCCO2`, the “hERG current change (%, negative = inhibition) at 1uM” value is -3.06%. As for `CC(C)CC1COC(=O)N1` (stereo not drawn), the “hERG current change (%, negative = inhibition) at 1uM” value is 15.6%. Next, `Cc1nc(CCN2C(=O)c3ccccc3C2=O)cs1`: 2.07%; `O=C1CC(Nc2ccccc2)C(=O)N1c1ccc(N2CCOCC2)cc1` (stereo not drawn): 9.29%; `CCN(CC)c1ccc(C2C3CCCCC3(O)CCN2CC(=O)Nc2ccccc2)cc1` (stereo not drawn): 3.26%.

Regarding `CC(C)Cc1nc(S(=O)(=O)c2ccc(Cl)cc2)c(N2CCOCC2)o1`, the “hERG current change (%, negative = inhibition) at 1uM” value was 5.42%. Consider `CCc1nnc(NC(=O)c2sc3nc4c(cc3c2N)CCCCC4)s1`, for which the “hERG current change (%, negative = inhibition) at 1uM” value was determined as 14.8%. Consider `CSc1ncccc1C(=O)OCC(=O)c1ccccc1`, for which the “hERG current change (%, negative = inhibition) at 1uM” value stood at 21.2%. Under `CCc1cc(C(=O)N2CCN(S(=O)(=O)c3ccc(Cl)cc3)CC2)sc1C` stands 8.41%; under `COc1ccc(C(=O)COC(=O)CCn2nnc(-c3cccs3)n2)cc1`, 7.07%. Next, `O=C1CC(Nc2ccc(N3CCOCC3)cc2)C(=O)N1c1ccccc1F` (stereo not drawn): 3.19%.

For the compound `COCCCn1c(-c2cccc(Cl)c2)nc2c1c(=O)[nH]c(=O)n2Cc1ccccc1`, the “hERG current change (%, negative = inhibition) at 1uM” value worked out at 9.37%.

As to `O=C(/C=C/c1ccccc1Cl)NCCc1ccccc1`, the “hERG current change (%, negative = inhibition) at 1uM” value is -12.9%. On to `COc1ccccc1NC(=O)C1CCCN(c2nc(C)cc(C)n2)C1` (stereo not drawn), for which the “hERG current change (%, negative = inhibition) at 1uM” value turned out to be 1.4%. With `CCn1c(=O)c(C(C)=O)c(O)c2ccccc21`, the “hERG current change (%, negative = inhibition) at 1uM” value turned out to be 2.38%. In the case of `Cc1cc(C)c(OCC(=O)OCC(=O)N2c3ccccc3CC2C)c(C)c1` (stereo not drawn), the “hERG current change (%, negative = inhibition) at 1uM” value came to 19.8%. Next, `CC(OC(=O)C1CCN(S(=O)(=O)c2ccc(Cl)cc2)CC1)C(=O)N1CCc2ccccc21` (stereo not drawn): 2.26%; `Cc1ccc(-c2n[nH]c(=O)c3ccccc23)cc1S(N)(=O)=O`: 13.9%. Under `Cc1cc(N2CC(C)OC(C)C2)nc2ccccc12` (stereo not drawn) stands 2.03%. Next, `Fc1ccc(-c2cnn3c(-c4ccncc4)ccnc23)cc1`: 11.8%. Take `O=C(N/N=C/c1coc2ccccc2c1=O)c1ccc(Cl)cc1`: the “hERG current change (%, negative = inhibition) at 1uM” value came to 17.5%. Next, `O=c1oc2c(-c3ccc([N+](=O)[O-])cc3)cc(O)cc2s1`: 10.7%; `CCOc1ccc(S(=O)(=O)NCCC(=O)NCCOc2ccccc2OC)cc1`: 3.66%. Regarding `CC(Sc1nnnn1-c1ccc(O)cc1)C(=O)NNC(=O)c1ccc(F)cc1` (stereo not drawn), the “hERG current change (%, negative = inhibition) at 1uM” value came out at 8.48%.

As for `CC(C)c1nnc(NC(=O)c2ccc3ccccc3c2)s1`, the “hERG current change (%, negative = inhibition) at 1uM” value is 6.94%.

For the compound `O=C(NN1C(=O)c2ccccc2NC1c1ccc([N+](=O)[O-])o1)c1ccc(Br)cc1` (stereo not drawn), the “hERG current change (%, negative = inhibition) at 1uM” value is -27.2%. Next, `COc1ccc(N2C(=O)CSC2c2ccc([N+](=O)[O-])cc2)cc1` (stereo not drawn): -12.2%; `Cc1cccn2c(CNCCCn3ncc4ccccc43)c(C(=O)N3CCCCC3)nc12`: 11.9%. On to `CC1=NN(c2ccc(C)cc2)C(=O)/C1=C\c1ccc(Br)s1`, for which the “hERG current change (%, negative = inhibition) at 1uM” value is given as 11.5%. Take `Cc1cc(N2CCC(C)CC2)nc(NCc2ccccc2)n1`: the “hERG current change (%, negative = inhibition) at 1uM” value was 3.24%. Next, `CCCn1c(=O)n(C)c(=O)c2c(SCC(=O)NCC(c3ccccc3)N(C)C)nc(CC(C)C)nc21` (stereo not drawn): -5.52%; `NC(=O)C1CCN(CC(=O)Nc2ccc(S(=O)(=O)N3CCOCC3)cc2)CC1`: 19.5%.

Consider `NNC(=S)NCc1ccc2c(c1)OCO2`, for which the “hERG current change (%, negative = inhibition) at 1uM” value was determined as 14.7%. For `CC(N1CCOC1=O)S(=O)(=O)c1ccccc1` (stereo not drawn), the “hERG current change (%, negative = inhibition) at 1uM” value was determined as 2.12%. In the case of `Cc1ccc(C2(C(F)(F)F)N=C3Sc4cc(C)cc(C)c4N3C(=O)N2)cc1` (stereo not drawn), the “hERG current change (%, negative = inhibition) at 1uM” value was found to be 4.33%.

Take `C/C(=N/O)c1ccc(N2C(=O)C3C4C=CC(C3C2=O)C2C3C(=O)N(c5ccc(/C(C)=N/O)cc5)C(=O)C3C42)cc1` (stereo not drawn): the “hERG current change (%, negative = inhibition) at 1uM” value is recorded as 3.94%. Under `Cc1cccc(Oc2nc(-c3ccccc3)cc(C)c2S(C)(=O)=O)c1C` stands 3.44%. Next, `Cc1c(-c2cccc(Cl)c2)nc2ccccc2c1C(=O)OCC(=O)N(C)C1CCS(=O)(=O)C1` (stereo not drawn): 4.41%; `O=C(NCCS(=O)(=O)NC1CCCCC1)c1ccc2c(c1)OCO2`: 2.98%; `CCCCP(=O)(CCCC)c1ccccc1C(=O)O`: 6.45%. For `CCn1cc(C(=O)N2CCN(c3ccc([N+](=O)[O-])cc3)CC2)c(=O)c2ccc(C)nc21`, the “hERG current change (%, negative = inhibition) at 1uM” value was -42.1%. Consider `Cc1cccc(NC(=O)CCC(=O)N/N=C/c2ccc(O)cc2O)c1`, for which the “hERG current change (%, negative = inhibition) at 1uM” value stood at 12.8%. Next, `O=C(CSc1nccc(=O)[nH]1)NCc1ccco1`: 9.54%; `O=C1CN(c2nc(-c3ccccc3)c3cc(Cl)ccc3n2)c2ccccc2N1`: 14.6%; `O=C(O)c1ccccc1S(=O)(=O)CC(=O)N1CCCCC1`: 14.3%.
